In the supplement of paper PMC8728848:
Some of the results follow.

Assays:
Assay in all cases: glycan array binding signal (z-score within array); higher = stronger binding
Conditions in all cases: glycan notation: IUPAC condensed, linker removed
[1] = biological target: GlcNAc(b1-4)GlcNAc(b1-4)GlcNAc
Summary of the method: (§1)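 Arrays were curated from the Consortium for Functional Glycomics database, 3228 in total, and kept only where the protein sequence was available. Binding is expressed as a within-array Z-score. This score was averaged across arrays of the same protein sequence at different concentrations or buffers and across linkers, and negative values can be read as non-binding.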

[2] = biological target: GlcNAc(b1-4)GlcNAc(b1-4)GlcNAc(b1-4)GlcNAc
Summary of the method: as §1

[3] = biological target: GlcNAc(b1-4)GlcNAc(b1-4)GlcNAc(b1-4)GlcNAc(b1-4)GlcNAc
Summary of the method: as §1

[4] = biological target: GlcNAc(b1-4)GlcNAc(b1-4)GlcNAc(b1-4)GlcNAc(b1-4)GlcNAc(b1-4)GlcNAc
Summary of the method: as §1

[5] = biological target: GlcNAc(b1-4)GlcNAc(b1-4)GlcNAc(b1-4)GlcNAc(b1-4)GlcNAc(b1-4)GlcNAc(b1-4)GlcNAc
Summary of the method: as §1

[6] = biological target: GlcNAc(b1-4)GlcNAc(b1-4)GlcNAc(b1-4)GlcNAc(b1-4)GlcNAc(b1-4)GlcNAc(b1-4)GlcNAc(b1-4)GlcNAc
Summary of the method: as §1

[7] = biological target: HexA(a1-3)GalNAc4S(b1-4)GlcA(b1-3)GalNAc4S
Summary of the method: as §1

[8] = biological target: HexA(a1-3)GalNAc4S(b1-4)GlcA(b1-3)GalNAc4S(b1-4)GlcA(b1-3)GalNAc4S(b1-4)GlcA(b1-3)GalNAc4S(b1-4)GlcA(b1-3)GalNAc4S(b1-4)GlcA(b1-3)GalNAc4S(b1-4)GlcA(b1-3)GalNAc4S
Summary of the method: as §1

[9] = biological target: HexA(a1-3)GalNAc4S(b1-4)IdoA(a1-3)GalNAc4S
Summary of the method: as §1

[10] = biological target: HexA(a1-3)GalNAc4S(b1-4)IdoA(a1-3)GalNAc4S(b1-4)IdoA(a1-3)GalNAc4S(b1-4)IdoA(a1-3)GalNAc4S(b1-4)IdoA(a1-3)GalNAc4S(b1-4)IdoA(a1-3)GalNAc4S(b1-4)IdoA(a1-3)GalNAc4S
Summary of the method: as §1

[11] = biological target: HexA(a1-3)GalNAc6S(b1-4)GlcA(b1-3)GalNAc6S
Summary of the method: as §1

[12] = biological target: HexA(a1-3)GalNAc6S(b1-4)GlcA(b1-3)GalNAc6S(b1-4)GlcA(b1-3)GalNAc6S(b1-4)GlcA(b1-3)GalNAc6S(b1-4)GlcA(b1-3)GalNAc6S(b1-4)GlcA(b1-3)GalNAc6S(b1-4)GlcA(b1-3)GalNAc6S
Summary of the method: as §1

HexA2S(a1-4)GlcNS6S = biological target: HexA2S(a1-4)GlcNS6S
Summary of the method: as §1

[13] = biological target: HexA6S(a1-4)GlcNS6S(a1-4)IdoA2S(a1-4)GlcNS6S
Summary of the method: as §1

[14] = biological target: HexA6S(a1-4)GlcNS6S(a1-4)IdoA2S(a1-4)GlcNS6S(a1-4)IdoA2S(a1-4)GlcNS6S(a1-4)IdoA2S(a1-4)GlcNS6S(a1-4)IdoA2S(a1-4)GlcNS6S(a1-4)IdoA2S(a1-4)GlcNS6S(a1-4)IdoA2S(a1-4)GlcNS6S
Summary of the method: as §1

[15] = biological target: Kdn(a2-3)Gal(b1-3)GalNAc(b1-4)[Kdn(a2-3)]Gal(b1-4)Glc
Summary of the method: as §1

[16] = biological target: Kdn(a2-3)Gal(b1-3)GlcNAc(b1-3)Gal(b1-4)Glc
Summary of the method: as §1

Kdn(a2-3)Gal(b1-4)Glc = biological target: Kdn(a2-3)Gal(b1-4)Glc
Summary of the method: as §1

[17] = biological target: Kdn(a2-3)Gal(b1-4)[Fuc(a1-3)]GlcNAc(b1-3)Gal
Summary of the method: as §1

[18] = biological target: Kdn(a2-3)Gal(b1-4)[Fuc(a1-3)]GlcNAc(b1-3)Gal(b1-4)Glc
Summary of the method: as §1

[19] = biological target: Kdn(a2-3)Gal(b1-4)[Rha(a1-3)]GlcNAc(b1-3)Gal(b1-4)Glc
Summary of the method: as §1

[20] = biological target: Kdn(a2-3)[GalNAc(b1-4)]Gal(b1-4)Glc
Summary of the method: as §1

Kdn(a2-6)Gal = biological target: Kdn(a2-6)Gal
Summary of the method: as §1

Man(a1-2)Man = biological target: Man(a1-2)Man
Summary of the method: as §1

[21] = biological target: Man(a1-2)Man(a1-2)Man(a1-3)[Man(a1-2)Man(a1-3)[Man(a1-2)Man(a1-6)]Man(a1-6)]Man(b1-4)GlcNAc(b1-4)GlcNAc
Summary of the method: as §1

[22] = biological target: Man(a1-2)Man(a1-2)Man(a1-3)[Man(a1-2)Man(a1-6)[Man(a1-3)]Man(a1-6)]Man(b1-4)GlcNAc(b1-4)GlcNAc
Summary of the method: as §1

[23] = biological target: Man(a1-2)Man(a1-2)Man(a1-3)[Man(a1-3)[Man(a1-6)]Man(a1-6)]Man(b1-4)GlcNAc(b1-4)GlcNAc
Summary of the method: as §1

[24] = biological target: Man(a1-2)Man(a1-3)[Man(a1-2)Man(a1-6)[Man(a1-3)]Man(a1-6)]Man(b1-4)GlcNAc(b1-4)GlcNAc
Summary of the method: as §1

[25] = biological target: Man(a1-2)Man(a1-3)[Man(a1-3)[Man(a1-6)]Man(a1-6)]Man(b1-4)GlcNAc(b1-4)GlcNAc
Summary of the method: as §1

Man(a1-3)Man = biological target: Man(a1-3)Man
Summary of the method: as §1

[26] = biological target: Man(a1-3)Man(a1-6)[Man(a1-3)]Man(b1-4)GlcNAc(b1-4)GlcNAc
Summary of the method: as §1

Man(a1-3)Man(b1-4)GlcNAc = biological target: Man(a1-3)Man(b1-4)GlcNAc
Summary of the method: as §1

Man(a1-3)[Man(a1-6)]Man = biological target: Man(a1-3)[Man(a1-6)]Man
Summary of the method: as §1

[27] = biological target: Man(a1-3)[Man(a1-6)]Man(a1-6)Man(b1-4)GlcNAc(b1-4)GlcNAc
Summary of the method: as §1

[28] = biological target: Man(a1-3)[Man(a1-6)]Man(a1-6)[Man(a1-3)]Man
Summary of the method: as §1

[29] = biological target: Man(a1-3)[Man(a1-6)]Man(a1-6)[Man(a1-3)]Man(b1-4)GlcNAc(b1-4)GlcNAc
Summary of the method: as §1

[30] = biological target: Man(a1-3)[Man(a1-6)]Man(b1-4)GlcNAc(b1-4)GlcNAc
Summary of the method: as §1

[31] = biological target: Man(a1-3)[Man(a1-6)]Man(b1-4)GlcNAc(b1-4)[Fuc(a1-6)]GlcNAc
Summary of the method: as §1

Man(a1-6)Man = biological target: Man(a1-6)Man
Summary of the method: as §1

[32] = biological target: Man(a1-6)Man(b1-4)GlcNAc(b1-4)GlcNAc
Summary of the method: as §1

Man(b1-4)GlcNAc = biological target: Man(b1-4)GlcNAc
Summary of the method: as §1

[33] = biological target: Man(b1-4)Man(b1-4)Man(b1-4)Man
Summary of the method: as §1

[34] = biological target: Man(b1-4)Man(b1-4)Man(b1-4)Man(b1-4)Man
Summary of the method: as §1

[35] = biological target: Man(b1-4)Man(b1-4)Man(b1-4)Man(b1-4)Man(b1-4)Man
Summary of the method: as §1

[36] = biological target: Man6P(a1-3)Man(a1-3)Man(a1-3)Man(a1-2)Man
Summary of the method: as §1

B1: HysACBM (Streptococcus pneumoniae), Q54873 (protein)
chain: KNLVENGDFGQTEDGSSPWTGSKAQGWSAWVDQKNSADASTRVIEAKDGAITISSHEKLRAALHRMVPIEAKKKYKLRFKIKTDNKIGIAKVRIIEESGKDKRLWNSATTSGTKDWQTIEADYSPTLDVDKIKLELFYETGTGTVSFKDIELVEVADQLS
- glycan array binding signal (z-score) [1]: -0.089
- glycan array binding signal (z-score) [2]: 0.1
- glycan array binding signal (z-score) [3]: 0.017
- glycan array binding signal (z-score) [4]: -0.091
- glycan array binding signal (z-score) [5]: -0.091
- glycan array binding signal (z-score) [6]: -0.091
- glycan array binding signal (z-score) [7]: -0.091
- glycan array binding signal (z-score) [8]: -0.091
- glycan array binding signal (z-score) [9]: -0.091
- glycan array binding signal (z-score) [10]: -0.091
- glycan array binding signal (z-score) [11]: 0.105
- glycan array binding signal (z-score) [12]: -0.091
- glycan array binding signal (z-score) (HexA2S(a1-4)GlcNS6S): -0.091
- glycan array binding signal (z-score) [13]: -0.091
- glycan array binding signal (z-score) [14]: -0.091
- glycan array binding signal (z-score) [15]: -0.091
- glycan array binding signal (z-score) [16]: -0.091
- glycan array binding signal (z-score) (Kdn(a2-3)Gal(b1-4)Glc): -0.005
- glycan array binding signal (z-score) [17]: -0.091
- glycan array binding signal (z-score) [18]: -0.091
- glycan array binding signal (z-score) [19]: -0.091
- glycan array binding signal (z-score) [20]: -0.091
- glycan array binding signal (z-score) (Kdn(a2-6)Gal): -0.091
- glycan array binding signal (z-score) (Man(a1-2)Man): -0.062
- glycan array binding signal (z-score) [21]: -0.091
- glycan array binding signal (z-score) [22]: -0.078
- glycan array binding signal (z-score) [23]: -0.091
- glycan array binding signal (z-score) [24]: -0.091
- glycan array binding signal (z-score) [25]: -0.091
- glycan array binding signal (z-score) (Man(a1-3)Man): -0.091
- glycan array binding signal (z-score) [26]: -0.091
- glycan array binding signal (z-score) (Man(a1-3)Man(b1-4)GlcNAc): -0.091
- glycan array binding signal (z-score) (Man(a1-3)[Man(a1-6)]Man): -0.078
- glycan array binding signal (z-score) [27]: -0.091
- glycan array binding signal (z-score) [28]: -0.002
- glycan array binding signal (z-score) [29]: -0.091
- glycan array binding signal (z-score) [30]: -0.091
- glycan array binding signal (z-score) [31]: -0.091
- glycan array binding signal (z-score) (Man(a1-6)Man): 0.152
- glycan array binding signal (z-score) [32]: -0.091
- glycan array binding signal (z-score) (Man(b1-4)GlcNAc): -0.091
- glycan array binding signal (z-score) [33]: 0.103
- glycan array binding signal (z-score) [34]: -0.091
- glycan array binding signal (z-score) [35]: -0.091
- glycan array binding signal (z-score) [36]: 0.069
